Experimental data as given in PubChem BioAssay AID2782 (National Center for Advancing Translational Sciences (NCATS), 2010).
Inconclusive results, whose numbers are uncertain, are shown with a selection of clear calls. Where the call is inconclusive, the potency comes from a doubtful curve fit. “Side channel” marks fits to a control or component signal instead of the main read-out. Active and inactive are the calls of the source. Calls follow the shape of the dose curve; as a rule, active = well fitted inhibition curve with a large enough effect in the polarisation, with a control signal flat (not every such curve was filed as active); inconclusive = small, poorly fitted or top-dose-only effect, or effect the other way, or a change in a side signal; inactive = no such curve, though single readings can be large or run the other way; the % refers to the polarisation.

Assay: Confirmation of Inhibitors Targeting the Menin-MLL Interaction in MLL Related Leukemias: Competition With Texas Red Labeled MLL-derived Mutant Peptide
Details: fluorescence polarization, Texas Red MLL peptide displacement; FP change, negative = inhibition: at 94.6 µM (top of the series) unless noted
Outline: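 FP competition using menin at 200 nM with Texas Red-labeled mutant MLL peptide (50 nM) plus fluorescein MLL-w.t. peptide (25 nM) in 50 mM Tris-HCl pH 7.5, 50 mM NaCl, 1 mM DTT, 0.05% BSA; compound added, 1 hr ambient; polarization read per label.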
% is scaled to controls: 0 for no effect and ±100 for the full control effect; potency is read from the fitted curve at half-maximal effect; tags tell the direction and shape of the fitted curve or compound fluorescence and quenching.

Compound	Potency	FP change, negative = inhibition
CCCOc1ccc(C(=O)N2CCN(Cc3ccc4c(c3)OCO4)CC2)cc1	inconclusive: 28.3 µM [fluorescent, side channel, partial curve]	–
CCCn1c(=O)c(C(=O)Nc2ccccc2C(=O)OCC)c(O)c2ccccc21	–	inactive: 21.8% [at 288 µM]
O=C(N/N=C/c1cn(-c2ccccc2)nc1-c1cc2ccccc2o1)c1ccccc1Br	inconclusive: 22.4 µM [inhibitor, full curve]	–
CN(C)c1ccc(N=Nc2ccc(C(=O)O)cc2)cc1	active: 141 µM	–
Cc1nc2oc3c(NCC4CCCO4)ncnc3c2c2c1COC(C)(C)C2 (stereo unspecified)	inconclusive: 126 µM [inhibitor, partial curve, poor fit]	–
O=C(NC(=S)Nc1ccccc1)c1cc(-c2ccccc2)nc2ccccc12	inconclusive: 50.1 µM [inhibitor, full curve]	–
